# The list shows a part of the results.
# T1: UNK ZnF1-3 (human, UniProt Q9C0B0 31-174)
# T1 sequence: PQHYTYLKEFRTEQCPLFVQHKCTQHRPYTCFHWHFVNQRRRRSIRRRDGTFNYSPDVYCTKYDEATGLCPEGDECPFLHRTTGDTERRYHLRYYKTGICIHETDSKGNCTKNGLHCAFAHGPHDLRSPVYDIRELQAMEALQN
# B1: chr1:220276048:220276049:+_ENSG00000067704_ENST00000302637|hu_hu|hu_hu_hu_mus_True|28_78 (ssRNA)
# RNA: GGGAGUUCUACAGUCCGACGAUCGCAAAUUGCCUGGUUGGCGGGAAUUGUCCAAGGUUGUGUGGUCCAAACUAAAACGCUAACAGGGGAUGAGGCAUCUGUAAGAGAUGCCAAUUUCGGAGGAGGUCUCAGGAGGGGGAAUCUCAACAGAGGAUUGAGCAUCA
# B2: 149136987_149137107_160_5pUTR_ENSMUSG00000068250_ENSMUST00000095319|mouse|control|control (ssRNA)
# RNA: GGGAGUUCUACAGUCCGACGAUCGCCCACCUGAGACAGGCCAUCGGGUGGAGCCGCCAGCCCCACGGUGCACCACAGUCCUCAGAGACCAGACACAAAGCCGGGACAAGGACUAGGAGCCAGCAGGACGUGAGGGAAGGGACUCAACAGAGGAUUGAGCAUCA
# B3: 34756928_34757048_3359_CDS_ENSMUSG00000039967_ENSMUST00000047950|mouse|control|control (ssRNA)
# RNA: GGGAGUUCUACAGUCCGACGAUCACCUUUUUUCGUCUUGCGCUGCAGUUUAAAAGCAGCAUAUUGGUCAGGGUGUGCUGUCUUCAUGUGUUUUCCAAUACUCUGUGAAGAGUUAUAUGUUCGAGUGCAUCCCUCAACCUGGCACAACAGAGGAUUGAGCAUCA
# B4: chr12:48362563:48362564:+_ENSG00000134291_ENST00000256686|hu_hu|hu_hu_hu_mus_False|28_78 (ssRNA)
# RNA: GGGAGUUCUACAGUCCGACGAUCUCCGUCAAGCCCUUCGAUAGACCCUUGCGGGGGUGGUAAAAACCACUUUGUAUGGGGAAGGAAAAGAAACGCCAAAAACUUUCUUUCUUUCUUGGGUGGGGUGAGGCGGGAGGGGGAGGUCAACAGAGGAUUGAGCAUCA
# B5: chr14:53325200:53325201:-_ENSG00000073712_ENST00000341590|hu_hu|FALSE|FALSE (ssRNA)
# RNA: GGGAGUUCUACAGUCCGACGAUCGUUUUGGUCUUUUGCACGUGUUGAGAGAAAUAUGUAGCCACCAAUGAAUUCAUGAACCACUUUGCAAUCUACUUCAGUACAAAUGAAGGACAAUCGUACUUCAUCUGCAAACUCUACGGUCAACAGAGGAUUGAGCAUCA
# B6: 105182201_105182321_1586_CDS_ENSMUSG00000031673_ENSMUST00000075190|mouse|control|control (ssRNA)
# RNA: GGGAGUUCUACAGUCCGACGAUCAGGCUCAUCGGCAUCUUCUACUGAAAUCUUGACGGUCACAGUGUCCUUGAAAGGUCCAUUGCUGAUGAACUUCGGAUCAAUGUGAACAUUGGCGGCCUCUAUCUUCAAGCUAUAAGCUCUCAACAGAGGAUUGAGCAUCA
# B7: chr16:70413849:70413850:-_ENSG00000157350_ENST00000342907|hu_hu|FALSE|FALSE (ssRNA)
# RNA: GGGAGUUCUACAGUCCGACGAUCGGCCUCCCAAAGUGCUGGGAUGACAGGUGUGAGCCACCGUACCUGGCGGGAUUCAUGAUUUAAAGCAAAAGAAAAAAAAGAAAUAAAUUAUUCUGCUCAAUACUGUUUGGCAUAAUUGCACAACAGAGGAUUGAGCAUCA
# B8: chr9:110092072:110092073:+_ENSG00000119318_ENST00000416373|hu_hu|FALSE|FALSE (ssRNA)
# RNA: GGGAGUUCUACAGUCCGACGAUCCUGUAUUUAUCCCUGCCCUGUAUCCUAGAUCCCUCCCUCCCCACCCCCAACAAUCUACUACCUUAUACCAAGUAUUGUGGAUAUGAGCCCAAGUCAUCCCAGACAAUCCAGUGAACAAGUCAACAGAGGAUUGAGCAUCA
# B9: chr12:29513650:29513651:+_ENSMUSG00000036613_ENSMUST00000035657|mus_mus|motif|central (ssRNA)
# RNA: GGGAGUUCUACAGUCCGACGAUCCUCCAGGGUCUGAGCAGUGCUUGCAGGGUCGUCAGGGGACUCGUGGCUACCGGAUUCGGAUUCCUUGGGCAUCCUCCACACAGCUGCACACGCCUGGACUCGACUGUCUGUAGUUUUGUUCAACAGAGGAUUGAGCAUCA
# B10: chr2:69673326:69673327:+_ENSMUSG00000042155_ENSMUST00000053087|mus_mus|FALSE|FALSE (ssRNA)
# RNA: GGGAGUUCUACAGUCCGACGAUCUUUUCCGUCAGAAGUAGUUUUUAUUUAAAGUAAAAAUUAAGUAUUCUCUCUUUAAAAACAAAACAAUAAAACCAACCUGGCGUGGAGCAGACAGUCUCACGUUUAGAUGAGUGACUUGAGCAACAGAGGAUUGAGCAUCA
# B11: 44165391_44171860_221_3pUTR_ENSMUSG00000035696_ENSMUST00000045793|mouse|control|control (ssRNA)
# RNA: GGGAGUUCUACAGUCCGACGAUCGGCGCUGUCUCUUAGGACUUGGACUAUCUUCACUCUGGAAGAAAGCUUUGAAGUGAGCAUCCUCUUGAAUGGUAGUGUUCUGAUCACUUGGGAGAAGAGGGAACAGGCUCUGAAGUCUCACAACAGAGGAUUGAGCAUCA
# B12: chr4:6882955:6882956:+_ENSG00000170871_ENST00000425103|hu_hu|FALSE|FALSE (ssRNA)
# RNA: GGGAGUUCUACAGUCCGACGAUCACCGCAGUCGGAAGGAAAAUUAACUGCAGUUAAGAUGCAAAAAGCAGUGAUACUUCUAAGACAAGCACAUGCACACCCAUUCUUGAUUUGACAACACAAUCUAGUCUAUUUCAAAUAGCCCAACAGAGGAUUGAGCAUCA
# B13: chr19:3980662:3980663:-_ENSG00000167658_ENST00000309311|hu_hu|FALSE|FALSE (ssRNA)
# RNA: GGGAGUUCUACAGUCCGACGAUCGAAGACUCGUCCAAAGGCGUAGAACCGACCUUUGUCGGAGGUUGGCACCAUUUUGGAAAUAUACAUCAUAAGAGGGCCUUUGGGGUCACAGCUUUUAAUGCCCAUGGCAGCCUCGUCGUCCAACAGAGGAUUGAGCAUCA
# B14: chr2:179515052:179515053:+_ENSMUSG00000000305_ENSMUST00000000314|mus_hu|mus_mus_mus_hu_False|18_78 (ssRNA)
# RNA: GGGAGUUCUACAGUCCGACGAUCGCUGUCCCAUGCAGUCACCGUGAACGCCACCUGCUCUGAGGGGACCUGCAGCUCCCGGGUGGCGAAGACUGUCCCAUCUGCCCCAACUUUGAAGUCCAAGCUGUUGGUCUCAUAUUGUGUCAACAGAGGAUUGAGCAUCA
# B15: chr4:25749455:25749456:-_ENSG00000091490_ENST00000264868|hu_hu|hu_hu_hu_mus_False|8_88 (ssRNA)
# RNA: GGGAGUUCUACAGUCCGACGAUCGCACUAUGACCUCUAGAAAAAUCAUUCAAGGAGAAAAAUGUAAACCAAUGUACAAUGUUAUCGCCUUCCCUGUGUGUGGAGUGUUUGUCUCAAGGCUCCUUCUUGCCUUAUAAUUUGGGACAACAGAGGAUUGAGCAUCA
# B16: chr5:93602159:93602160:+_ENSMUSG00000058013_ENSMUST00000074733|mus_hu|FALSE|FALSE (ssRNA)
# RNA: GGGAGUUCUACAGUCCGACGAUCUAUGCUCAUUUUAAAAAAAUUUUAGUGAUGCAAGAGACAAUUUAAAAGUGUACUUUCUGUACAAGCCACAAAAAUGCUCACACAAGCGGUGGUUGGAACAAGCAUACAACACAAAUAUUCCAACAGAGGAUUGAGCAUCA
# B17: chr9:83676842:83676843:-_ENSMUSG00000032262_ENSMUST00000034796|mus_mus|FALSE|FALSE (ssRNA)
# RNA: GGGAGUUCUACAGUCCGACGAUCGAUCCAGGGGCCGAACGCAGUCAGCCCAUAGUAGGAGUACAUGAUCACGUGGAUGAAAGAGUUCAUCUGGGCCCCGAAAAACGCUUGGCCUCCAGCCACCCACUUGAUUCCAAUCCACCACAACAGAGGAUUGAGCAUCA
# B18: chr11:87793471:87793472:-_ENSMUSG00000020483_ENSMUST00000020775|mus_mus|mus_mus_mus_hu_False|8_8 (ssRNA)
# RNA: GGGAGUUCUACAGUCCGACGAUCUGGACUUGAAAAUAAAAGAAUAAGCUGGAUCCCCCACCCCCCCACAUUGUCAACCCUACACGAGAGUUUUGAAGGCGACUCAUGAAAAUCAGCAGCUCAAACGAAUGACAACCCCCCACCCAACAGAGGAUUGAGCAUCA
# B19: chr11:77336104:77336105:-_ENSG00000074201_ENST00000525064|hu_mus|hu_hu_hu_mus_False|1_88 (ssRNA)
# RNA: GGGAGUUCUACAGUCCGACGAUCCUCACACAUUGCUGUGAACAUCGCCUCCAACGCUGACUUAUCACUGGGCACAAAUCGAAAUUCAGAAAUGGGUUCAACAUCAUCAUUGUCUUCCUCAUCUUCAUCAGAGAGAGCAGGUUCCAACAGAGGAUUGAGCAUCA
# B20: chr14:89307221:89307222:+_ENSG00000165533_ENST00000346301|hu_mus|hu_hu_hu_mus_False|38_38 (ssRNA)
# RNA: GGGAGUUCUACAGUCCGACGAUCUCCUGUUUGGUUAGUGCCAGGGAGCUUCAAAGAUGUGCCAGGGCGUGGGACCUGAGCAAUAGCAUUUUCAUCCAGCAUCAUUUCAGCAAUUCCUUCCUGGUCCACAUCAAUUUCAUCUAUCAACAGAGGAUUGAGCAUCA
# B21: chr19:29217640:29217641:+_ENSMUSG00000024785_ENSMUST00000064393|mus_hu|motif|central (ssRNA)
# RNA: GGGAGUUCUACAGUCCGACGAUCCUUGGUUUCAAUUUUAAACAUAAUCUGGAAAAAGCUCUUCAAAUGCCGCAAAAAUUCGGUCGUGUAGGGAGAGAGAGGGCCUAGCAGGACUUUGGAAACAUCCUGCUGUCCAAGGGUCAUCAACAGAGGAUUGAGCAUCA
# B22: chr1:193054138:193054139:+_ENSG00000116747_ENST00000432079|hu_hu|motif|central (ssRNA)
# RNA: GGGAGUUCUACAGUCCGACGAUCUUACACUUUUUGCUCUUACCUCUUUUAGGUACACACGUAUUAUUCAACAAAGCAAAACGGUUUUACAGUGUCUGUUAACAAAAAGUUCUCUAUUAGAUAGAGGAAACUACAGUAUCCUGACAACAGAGGAUUGAGCAUCA
# Target: T1, UNK ZnF1-3
# Assay: nsRBNS (natural sequence RNA bind-n-seq); RBNS binding buffer (assumed for nsRBNS): 25 mM Tris pH 7.5, 150 mM KCl, 3 mM MgCl2, 0.01% Triton X-100, 500 ug/ml BSA, 20 U/ml SUPERase-In, 4 C; UNK is unkempt and MSI1 is Musashi-1; names of the RNAs are library labels; protein concentration not given here; high values mean tight binding
row,Binder,binding signal [enrichment R]
1,B1,1.99
2,B2,1.19
3,B3,0.561
4,B4,1.39
5,B5,1.01
6,B6,1.03
7,B7,2.69
8,B8,0.723
9,B9,0.831
10,B10,0.986
11,B11,1.32
12,B12,1.28
13,B13,1.69
14,B14,0.722
15,B15,1.05
16,B16,0.806
17,B17,0.679
18,B18,2.51
19,B19,1.18
20,B20,1.07
21,B21,1.39
22,B22,0.483

# Reference: paper PMC12136788
